# According to the supplement of paper PMC11417369:
# The list shows a part of the results.
# Test system: PfSIP2 AP2 domain 1 (GST-tagged)
# Assay: gcPBM binding intensity (ln(normalized median fluorescence intensity)); higher = stronger DNA binding
# Procedure, shortened: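 The binding buffer was 1× PBS containing 1% milk, 0.2 mg/ml BSA, 0.5% salmon testes DNA and 0.03% Triton X-100. In it, GST-tagged P. falciparum DNA-binding domains expressed in E. coli were applied for 1 h to an Agilent 4 × 180k array of primer-extended double-stranded 36-bp intergenic genomic probes plus negative controls. Binding intensity, read with Alexa488 anti-GST antibody and a 488 nm scan, is the highest Masliner-normalised natural-log median intensity across replicate spots of either probe orientation.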
row,Sequence,gcPBM binding intensity (ln)
1,CATTATATATATTACTAAAAATTTTACCCCTTAGCT [CACACA_negctrl_site302],6.88
2,ATGTATATAAATATACGTACATAAATATAAGTATAG [XGTACX_site7155],7.24
3,ATACATGAATAAATATGTACACATATAAAAACATAT [XGTACX_site2740],7.11
4,TTTTTTCTTTTTATGTGTACTTATTTTATTTAATAA [XGTACX_site1080],6.83
5,TTTTAACAAAACTAAATAATCATATATATAAGATAT [GTGCAC_negctrl_site298],6.71
6,CATTTCTATATAAGCACACACGTGGAATTTTTTTTT [CACACA_site5537],6.86
7,ATTATTTGAACAACAAAAAAAAAGAAAAGAAAAGAA [CACACA_negctrl_site1031],7.13
8,AAATCGTAATATATTTGTACTTATTTGAAAAATCCA [XGTACX_site8141],7.01
9,TCATATTATAAATAAATAAATAAATATATATATATA [CACACA_negctrl_site577],9.32
10,AACACGCGCAGACACACACACACACGCACATATATA [CACACA_site7104],7.26
11,TTTTTTTTCTTTTTTTTAAGAAATAAATAAATAATT [XGTACX_negctrl_site137],6.77
12,ACTTAATTTTTTTTATGTACTTATTTAAAAAATTTT [XGTACX_site2712],7.35
13,CTTAAAGGGAAAAATACACACATATAAATATTATGT [CACACA_site2225],6.83
14,TTAGTAGTATTATGTAGTACATAATTATCATATCAT [XGTACX_site817],6.87
15,TAATTATTTTTATATTGTACAATATGTAAATATATA [XGTACX_site592],6.97
16,TTTTTTGAATTTAAAAGTACAGGCTTTTACCAAATA [XGTACX_site1356],6.93
17,AAAAAAAAAAAAAAAAGTACATACAACATTATGAAA [XGTACX_site207],7.73
18,ATAAATAAATAAATCTGTACATATGTATATGTATAT [XGTACX_site4537],7.05
19,AATTAAAAAAAAAAAAAAAAAAAAAAATGAAAAAAA [CACACA_negctrl_site1073],6.69
20,AAAAAAGAAAAAAAGTGTACAATATTTATTACATAT [XGTACX_site2277],6.9
21,ATAATCCTTGGACACACACACACACTAGTAAATAAA [CACACA_site4423],7.26
22,AACCCAAAATAATTATGTACATATTTTTAAATATAT [XGTACX_site6487],7.26

row,Sequence,gcPBM binding intensity (ln)
1,TTTGTGTATATAACAGTGCAATATTATAAATATAAA [GTGCAC_site9750],8.53
2,GCAAAGCACAAATATGCATGTAGATATAGAATAATG [TGCATGCA_site382],7.68
3,CATCCAAAAATATTATGTACTAAATTTGGATGTATT [XGTACX_site3954],6.8
4,TATAAAATTATGTGTACACAAATATAACTTTTCTTT [CACACA_site5554],6.94
5,TATTCATATTCCAAGTGTACACATAAATCCCTAATA [XGTACX_site4131],7.55
6,AAAATATTTCTTCTTTGTACTTATATATATTTAATT [XGTACX_site5446],7.01
7,TACTTACCTATAATAACACACAAGAAAAAAATAAAA [CACACA_site6616],7.26
8,AAATAATATCATAAATGTACATATATCATATTATTA [XGTACX_site5372],6.9
9,AAATTATAGAATCATTGTACTTTTTTTTTTTTTTTT [XGTACX_site1280],7.61
10,CTCATCCTTACATACACACACATATATTTATTTATA [CACACA_site6202],7.46
11,TATGCTTCAAAATTGTGTACATATATAATATATTAT [XGTACX_site6760],7.18
12,TTAATAATTATAACATGTACATACACTAAATTTTTT [XGTACX_site8953],7.31
13,CAAATATATATTTATTGTACATATTGTTTATATGGT [XGTACX_site5246],7.14
14,AAATATTTATATGTTACACACTGTTTATAATTTTCT [CACACA_site4868],6.75
15,CAATGTATTTAGAATACATGCATATTTTCATAATGT [TGCATGCA_site221],6.76
16,AATTATGCACAAATCACACATATAAAATAAAAAGTG [CACACA_site4474],7.87
17,AAATCCATATAGGATTGTACATATATTATATATATA [XGTACX_site8818],7.94
18,AATTCTTTACTATTCACACATATAAATATTCACTTT [CACACA_site4886],7.07
19,CAAAATGTTAAAGATACACACCTAACAAACACAAAA [CACACA_site4685],7.01
20,ACATATATATTTATATGTACATATATTTATATATAT [XGTACX_site7469],7.27
21,GTGGTATAAATTTTATGTACTTAATAACTCATTAAT [XGTACX_site5555],7.08
22,AAAAATATTTAAAATACACACATATCTATAATATAT [CACACA_site7032],6.95
